# Test results published in PubChem BioAssay AID1745853 (National Center for Advancing Translational Sciences (NCATS), 2022).
# Some of the results follow. These are further read-outs of the screen, such as a control signal, another cell line or another target. No call is given for them.
# How the values were obtained:
# Assay in all cases: Primary Screen for Target Class Profiling of Small Molecule Inhibitors of Methyltransferases
# [1] = target: Glycine N-methyltransferase (Homo sapiens) (UniProt Q14749); details: purified enzyme, MTase-Glo SAH luminescence; measured here: GNMT inhibition; at 40 µM; stronger effect = lower value
# Outline: (§1)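 Each enzyme was reacted with SAM and its substrate, with compounds tested once at 40 uM; SAH formed was read by MTase-Glo luminescence.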
# [2] = target: Guanidinoacetate N-methyltransferase (Homo sapiens) (UniProt Q14353); details: purified enzyme, MTase-Glo SAH luminescence; measured here: GAMT inhibition; at 40 µM; stronger effect = lower value
# Outline: as §1
# [3] = target: Histamine N-methyltransferase (Homo sapiens) (UniProt P50135); details: purified enzyme, MTase-Glo SAH luminescence; measured here: HNMT inhibition; at 40 µM; stronger effect = lower value
# Outline: as §1
# [4] = target: Nicotinamide N-methyltransferase (Homo sapiens) (UniProt P40261); details: purified enzyme, MTase-Glo SAH luminescence; measured here: NNMT inhibition; at 40 µM; stronger effect = lower value
# Outline: as §1
# [5] = target: Phenylethanolamine N-methyltransferase (Homo sapiens) (UniProt P11086); details: purified enzyme, MTase-Glo SAH luminescence; measured here: PNMT inhibition; at 40 µM; stronger effect = lower value
# Outline: as §1
# % is scaled to controls: 0 for no effect and ±100 for the full control effect.
SMILES,"activity change, negative = inhibition [1]","activity change, negative = inhibition [2]","activity change, negative = inhibition [3]","activity change, negative = inhibition [4]","activity change, negative = inhibition [5]"
O=C(NNc1ccccc1)c1ccncc1,5.67%,6.25%,10.9%,-1.81%,8.08%
Cc1cccc(C(=O)Nc2ccc3c(c2)C(=O)N(C)C2=NCCN23)c1,-10.4%,-5.47%,-6.05%,-8.25%,-11.5%
CN(CC1CCOCC1)C(=O)c1ccsc1,-0.149%,-0.855%,3.31%,-1.81%,-1.25%
Cn1c(Cn2cccn2)nnc1C1CCCN(C(=O)c2ccoc2)C1 (stereo not drawn),-2.99%,-8.18%,-1.06%,-10.7%,-8.01%
O=C(NCCc1cccs1)c1cc2n(n1)CCCN(Cc1ccc(F)cc1)C2=O,-3.76%,0%,6.71%,0.893%,3.1%
C=C(C)C1CC=C(C(=O)O)CC1 (stereo not drawn),3.32%,4.77%,4.5%,-8.73%,-0.704%
CCC(C)N1C(=O)c2c(NC(C)=O)c3cc(F)ccc3n2CC1(C)C(=O)NC1CCCCC1 (stereo not drawn),-2.18%,0%,0.746%,-0.159%,1.39%
Cn1c(=O)c(F)c(Nc2ccc(I)cc2F)c2c(=O)n(CC(O)CO)cnc21 (stereo not drawn),-12.7%,-4.47%,-0.375%,-27.6%,-11.2%
Cc1ccc2c(c1)c(-n1cccc1)c1n2CC(C)(C(=O)NC2CCCC2)N(Cc2cccnc2)C1=O (stereo not drawn),-5.77%,2.69%,-5.93%,-20%,-2.4%
CC(C)n1cnc2cc(CNC(=O)c3cccnc3)ccc21,14.2%,0.7%,9.19%,7.87%,7.43%
Cc1ccncc1C(=O)N1CC[C@@H]2CN(S(C)(=O)=O)[C@@H]2C1,-0.073%,0.773%,1.43%,1.15%,0.839%
O=C(c1ccc2ccccc2n1)N1CC2CC(C1)[C@H]1CCCC(=O)N1C2 (stereo partly drawn),1.87%,0.565%,1.82%,-2.11%,1.87%
CCOC(=O)c1cc2n(n1)CC(C)(C(=O)NCc1ccccc1OC)N(c1ccc(OCC)cc1)C2=O (stereo not drawn),3.36%,0%,6.75%,5.35%,4.61%
COc1cccc(N2CCN(S(=O)(=O)c3cc4c(cc3C)n(C)c(=O)n4C)CC2)c1,5.54%,0.457%,1.66%,1.86%,4.41%
Cc1ncccc1C(=O)N1C[C@H]2OC(=O)N(CCc3cccc(Cl)c3)[C@H]2C1,-9.28%,-8.43%,-6.7%,-9.91%,-3.59%
CCc1ccc(S(=O)(=O)c2nnn3c2nc(NCCCN2CCCC2=O)c2cc(Cl)ccc23)cc1,-18.3%,1.71%,-9.32%,-14.3%,-5.66%
COc1cccn(CC(=O)N2CCN(c3ccccc3C#N)CC2)c1=O,-5.16%,1.99%,0.579%,-1.41%,2.42%
COc1ccc(OC)c2c1cc1n2CC(C)(C(=O)NC2CCCCC2)N(Cc2ccc(F)cc2)C1=O (stereo not drawn),-4.28%,-2.58%,-2.36%,-6.72%,-7.96%
CC1CCC(NC(=O)C2(C)Cn3c(cc4sccc43)C(=O)N2Cc2cccs2)CC1 (stereo not drawn),-0.728%,1.94%,-6.13%,-12.8%,-4.56%

SMILES,"activity change, negative = inhibition [1]","activity change, negative = inhibition [2]","activity change, negative = inhibition [3]","activity change, negative = inhibition [4]","activity change, negative = inhibition [5]"
COCCN1C(=O)c2cc(-c3ccc(OC)cc3)nn2CC1(C)C(=O)NCc1ccccc1 (stereo not drawn),3.52%,0.687%,4.09%,8.58%,0.049%
[N-]=[N+]=N[C@]1(CO)O[C@@H](n2ccc(=O)[nH]c2=O)[C@@H](O)[C@@H]1O,-4.4%,-5.73%,7.58%,-14%,1.27%
CN(C)CC[C@@H](c1ccc(Br)cc1)c1ccccn1,-10.2%,-1.23%,-23.9%,-16.1%,0.499%
CN[C@H](CC(C)C)C(=O)N[C@H]1C(=O)N[C@@H](CC(N)=O)C(=O)N[C@H]2C(=O)N[C@H]3C(=O)N[C@H](C(=O)N[C@H](C(=O)O)c4cc(O)cc(O)c4-c4cc3ccc4O)[C@H](O[C@H]3C[C@](C)(N)[C@@H](O)[C@H](C)O3)c3ccc(c(Cl)c3)Oc3cc2cc(c3O[C@@H]2O[C@H](CO)[C@@H](O)[C@H](O)[C@H]2O[C@H]2C[C@](C)(NCc3ccc(-c4ccc(Cl)cc4)cc3)[C@@H](O)[C@H](C)O2)Oc2ccc(cc2Cl)[C@H]1O,-0.737%,17.6%,3.99%,-15.1%,-0.164%
CCCS(=O)(=O)N1CCC2(CC1)c1[nH]c3ccccc3c1CCN2C,-7.21%,0.19%,-1.78%,2.1%,0.158%
CC1CCN(S(=O)(=O)c2ccc3c(ccn3CCC(=O)NC3CCCCC3C)c2)CC1 (stereo not drawn),-0.352%,3.67%,-3.61%,-5.54%,-4.94%
Cc1ccccc1CN1C(=O)c2ccc(-c3ccco3)n2CC1(C)C(=O)NC1CCCCC1C (stereo not drawn),0.262%,0%,5.54%,1.92%,2.77%
Cc1cccc(NC(=O)CSc2nnc3n(CCC(C)C)c(=O)c4ccccc4n23)c1,-0.548%,0%,7.83%,-3.01%,1.92%
COC(=O)c1ccc(=O)c2nc3/c(=C/O)c(O)cc(=O)c3[nH]c12,,-76.2%,,-71%,-85.6%
O=C(NC1CC1)c1nc2sccn2c1-c1ccc(C(F)(F)F)cc1,-2.17%,-2.35%,-0.865%,-13.9%,-15.1%
CC1(C(=O)NC2CCCCCCC2)Cn2c(cc3sccc32)C(=O)N1Cc1ccco1 (stereo not drawn),-18.6%,0.504%,-4.2%,-16.2%,-6.12%
COc1ccc(OC)c(CCNC(=O)CNC(=O)C2(C)Cn3c(cc4ccccc43)C(=O)N2C)c1 (stereo not drawn),5.29%,0%,7.93%,7.79%,3.41%
O=C(Cn1c(=O)oc2cc(S(=O)(=O)N3CCCC3)ccc21)Nc1ccc(Cl)cc1F,1.24%,0.815%,7.31%,8.23%,-1.79%
COc1ccc(CNC(=O)C(C)n2ccc3cc(S(=O)(=O)N4CCCCC4)ccc32)cc1 (stereo not drawn),5.75%,0%,7.11%,4.28%,4.12%
CC(C)c1ccc(N2C(=O)CSc3c(c4ccccc4n3C)C2C(=O)NCc2ccccc2)cc1 (stereo not drawn),0.232%,2.03%,-2.2%,-4.32%,-6.09%
COc1cc([C@H]2O[C@H](c3cc(OC)c4c(c3)OCO4)[C@H](C)[C@H]2C)cc(OC)c1OC,0%,8.92%,8.41%,-7.62%,0.766%
CCc1ccc(-c2cc3n(n2)CC(C)(C(=O)NC2CCCCCC2)N(CCCOC(C)C)C3=O)cc1 (stereo not drawn),-2.33%,5.3%,7.61%,-0.779%,-0.194%
CN1C(=O)c2cc(C(=O)NCCCN3CCCC3)nn2CC1(C)C(=O)NC1CCCCCC1 (stereo not drawn),-1.84%,-2.27%,-5.74%,-0.458%,-2.75%
